The least precise scores are not listed. Two further conditions of the source, in which the scores hardly spread, are not listed. Names with del lack the residues named; names with ins carry added residues between the positions named. For some of these results: The data file names ogerin without a concentration.
B1: GPR68, Q15743 (parent)
chain: MGNITADNSSMSCTIDHTIHQTLAPVVYVTVLVVGFPANCLSLYFGYLQIKARNELGVYLCNLTVADLFYICSLPFWLQYVLQHDNWSHGDLSCQVCGILLYENIYISVGFLCCISVDRYLAVAHPFRFHQFRTLKAAVGVSVVIWAKELLTSIYFLMHEEVIEDENQHRVCFEHYPIQAWQRAINYYRFLVGFLFPICLLLASYQGILRAVRRSHGTQKSRKDQIQRLVLSTVVIFLACFLPYHVLLLVRSVWEASCDFAKGVFNAYHFSLLLTSFNCVADPVLYCFVSETTHRDLARLRGACLAFLTCSRTGRAREAYPLGAPEASGKSGAQGEEPELLTKLHPAFQTPNSPGSGGFPTGRLA

How the values were obtained:
[1] = variants of: B1; test: cAMP reporter score (Enrich2 score, wild type = 0); higher = more signal; HEK293T, FACS bins
[2] = variants of: B1; test: surface expression score (Enrich2 score, wild type = 0); higher = more signal; HEK293T, FACS bins

Variant | cAMP reporter score ([1]; pH 5.5) | cAMP reporter score ([1]; pH 6) | cAMP reporter score ([1]; pH 6, modulator: ogerin) | cAMP reporter score ([1]; pH 6.5, modulator: ogerin) | surface expression score [2]
MGNITADNSSMSCTIDHTIHQTLAPVVYVTVLVVGFPANCLSLYFGYLQIKARNELGVYLCNLTVADLFYICSLPFWLQYVLQHDNWSHGDLSCQVCGILLYENIYISVGFLCCISVDRYLAVAHPFRFHQFRTLKAAVGVSVVIWAKELLTSIYFLMHEEVIEDENQHRVCFEHYPIQAWQRAINYYRFNVGFLFPICLLLASYQGILRAVRRSHGTQKSRKDQIQRLVLSTVVIFLACFLPYHVLLLVRSVWEASCDFAKGVFNAYHFSLLLTSFNCVADPVLYCFVSETTHRDLARLRGACLAFLTCSRTGRAREAYPLGAPEASGKSGAQGEEPELLTKLHPAFQTPNSPGSGGFPTGRLA [L191N] | -0.062 | -1.76 | -0.377 | -0.927 | -0.413
MGNITADNSSMSCTIDHTIHQTLAPVVYVTVLVVGFPANCLSLYFGYLQIKARNELGVYLCNLTVADLFYICSLPFWLQYVLQHDNWSHGDLSCQVCGILLYENIYISVGFLCCISVDRYLAVAHPFRFHQFRTLKAAVGVSVVIWAKELLTSIYFLMHEEVIEDENQHRVCFEHYPIQAWQRAINYYRFPVGFLFPICLLLASYQGILRAVRRSHGTQKSRKDQIQRLVLSTVVIFLACFLPYHVLLLVRSVWEASCDFAKGVFNAYHFSLLLTSFNCVADPVLYCFVSETTHRDLARLRGACLAFLTCSRTGRAREAYPLGAPEASGKSGAQGEEPELLTKLHPAFQTPNSPGSGGFPTGRLA [L191P] | 0.044 | -0.415 | -0.22 | -2.09 | -0.422
MGNITADNSSMSCTIDHTIHQTLAPVVYVTVLVVGFPANCLSLYFGYLQIKARNELGVYLCNLTVADLFYICSLPFWLQYVLQHDNWSHGDLSCQVCGILLYENIYISVGFLCCISVDRYLAVAHPFRFHQFRTLKAAVGVSVVIWAKELLTSIYFLMHEEVIEDENQHRVCFEHYPIQAWQRAINYYRFQVGFLFPICLLLASYQGILRAVRRSHGTQKSRKDQIQRLVLSTVVIFLACFLPYHVLLLVRSVWEASCDFAKGVFNAYHFSLLLTSFNCVADPVLYCFVSETTHRDLARLRGACLAFLTCSRTGRAREAYPLGAPEASGKSGAQGEEPELLTKLHPAFQTPNSPGSGGFPTGRLA [L191Q] | -0.487 | -0.631 | -1.43 | -0.585 | 
MGNITADNSSMSCTIDHTIHQTLAPVVYVTVLVVGFPANCLSLYFGYLQIKARNELGVYLCNLTVADLFYICSLPFWLQYVLQHDNWSHGDLSCQVCGILLYENIYISVGFLCCISVDRYLAVAHPFRFHQFRTLKAAVGVSVVIWAKELLTSIYFLMHEEVIEDENQHRVCFEHYPIQAWQRAINYYRFMVGFLFPICLLLASYQGILRAVRRSHGTQKSRKDQIQRLVLSTVVIFLACFLPYHVLLLVRSVWEASCDFAKGVFNAYHFSLLLTSFNCVADPVLYCFVSETTHRDLARLRGACLAFLTCSRTGRAREAYPLGAPEASGKSGAQGEEPELLTKLHPAFQTPNSPGSGGFPTGRLA [L191M] | 0.525 | -0.324 | 0.771 | 0.604 | 0.338

Reference: the GPR68 mutational scans of Howard et al. (2025)
